This note sets out measurements from PMC12820563.

This is one part of the list. The list includes weakly bound sequences.

This test has as its target T1, MBP-FoxP3dN (UniProt Q99JB6).
T1 sequence: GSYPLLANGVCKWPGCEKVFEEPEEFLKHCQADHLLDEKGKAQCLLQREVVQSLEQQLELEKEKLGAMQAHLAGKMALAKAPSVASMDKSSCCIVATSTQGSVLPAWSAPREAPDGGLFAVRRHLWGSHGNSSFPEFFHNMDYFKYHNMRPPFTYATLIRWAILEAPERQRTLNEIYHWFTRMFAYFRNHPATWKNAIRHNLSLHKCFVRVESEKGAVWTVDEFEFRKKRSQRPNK
The test can be described thus: PD-seq (MBP pull-down with sequencing). To be noted: 20 mM Tris-HCl pH 7.5, 100 mM NaCl, 1.5 mM MgCl2, 0.4 uM protein, 0.1 uM dsDNA library, 30 min, room temperature, amylose pull-down; high values mean tight binding; double strand, one strand shown.
On to “GATGATTGTTCTCCCAGCTGATGAATTTAAGGATTCGAGTAAACAAATTTTCCTAATCTTTCTGTTCAAGCGCCATCTAC”, for which the binding signal (RPM ratio (pull-down/input)) was determined as 0.302. “GATGATTGTTCTCCCAGCTGATGAATTCTGCTCGTCGAGTAAACAAATTTTCCTAATCTTTCTGTTCAAGCGCCATCTAC”: the binding signal (RPM ratio (pull-down/input)) is 0.61. Then “GATGATTGTTCTCCCAGCTGATGAATTGTATTCTTCGAGTAAACAAATTTTCCTAATCTTTCTGTTCAAGCGCCATCTAC”, with 1.92; and “GATGATTGTTCTCCCAGCTGATGAATTTCCGTCATCGAGTAAACAAATTTTCCTAATCTTTCTGTTCAAGCGCCATCTAC”, with 0.58. Then “GATGATTGTTCTCCCAGCTGATGAATTTTAGATCTCGAGTAAACAAATTTTCCTAATCTTTCTGTTCAAGCGCCATCTAC”, with 0.311; and “GATGATTGTTCTCCCAGCTGATGAATTGCCCGGCTCGAGTAAACAAATTTTCCTAATCTTTCTGTTCAAGCGCCATCTAC”, with 0.303; and “GATGATTGTTCTCCCAGCTGATGAATTAGGGTGTTCGAGTAAACAAATTTTCCTAATCTTTCTGTTCAAGCGCCATCTAC”, with 0.81.

On to “GATGATTGTTCTCCCAGCTGATGAATTACCAATATCGAGTAAACAAATTTTCCTAATCTTTCTGTTCAAGCGCCATCTAC”, for which the binding signal (RPM ratio (pull-down/input)) was found to be 0.98.

On to “GATGATTGTTCTCCCAGCTGATGAATTATTACAATCGAGTAAACAAATTTTCCTAATCTTTCTGTTCAAGCGCCATCTAC”, for which the binding signal (RPM ratio (pull-down/input)) turned out to be 0.712. As for “GATGATTGTTCTCCCAGCTGATGAATTAAGGGGTTCGAGTAAACAAATTTTCCTAATCTTTCTGTTCAAGCGCCATCTAC”, the figure is 0.443. On to “GATGATTGTTCTCCCAGCTGATGAATTCGTCGTCTCGAGTAAACAAATTTTCCTAATCTTTCTGTTCAAGCGCCATCTAC”, for which the binding signal (RPM ratio (pull-down/input)) was 1.31.

With “GATGATTGTTCTCCCAGCTGATGAATTAGTTGTCTCGAGTAAACAAATTTTCCTAATCTTTCTGTTCAAGCGCCATCTAC”, the binding signal (RPM ratio (pull-down/input)) is 5.87. With “GATGATTGTTCTCCCAGCTGATGAATTGTCAGTCTCGAGTAAACAAATTTTCCTAATCTTTCTGTTCAAGCGCCATCTAC”, the binding signal (RPM ratio (pull-down/input)) came to 0.476. Consider “GATGATTGTTCTCCCAGCTGATGAATTAATGGACTCGAGTAAACAAATTTTCCTAATCTTTCTGTTCAAGCGCCATCTAC”, for which the binding signal (RPM ratio (pull-down/input)) is 0.419. On to “GATGATTGTTCTCCCAGCTGATGAATTAGTTGAATCGAGTAAACAAATTTTCCTAATCTTTCTGTTCAAGCGCCATCTAC”, for which the binding signal (RPM ratio (pull-down/input)) stood at 0.579. Take “GATGATTGTTCTCCCAGCTGATGAATTAAATCGATCGAGTAAACAAATTTTCCTAATCTTTCTGTTCAAGCGCCATCTAC”: the binding signal (RPM ratio (pull-down/input)) stood at 0.319. As to “GATGATTGTTCTCCCAGCTGATGAATTTATAGGCTCGAGTAAACAAATTTTCCTAATCTTTCTGTTCAAGCGCCATCTAC”, the binding signal (RPM ratio (pull-down/input)) came out at 0.83.

For “GATGATTGTTCTCCCAGCTGATGAATTGGCAGGTTCGAGTAAACAAATTTTCCTAATCTTTCTGTTCAAGCGCCATCTAC”, the binding signal (RPM ratio (pull-down/input)) amounted to 0.326. As for “GATGATTGTTCTCCCAGCTGATGAATTCTTCCGCTCGAGTAAACAAATTTTCCTAATCTTTCTGTTCAAGCGCCATCTAC”, the binding signal (RPM ratio (pull-down/input)) turned out to be 0.222.

For the sequence “GATGATTGTTCTCCCAGCTGATGAATTCTTGGTATCGAGTAAACAAATTTTCCTAATCTTTCTGTTCAAGCGCCATCTAC”, the binding signal (RPM ratio (pull-down/input)) turned out to be 0.429.

Take “GATGATTGTTCTCCCAGCTGATGAATTGGCTCAATCGAGTAAACAAATTTTCCTAATCTTTCTGTTCAAGCGCCATCTAC”: the binding signal (RPM ratio (pull-down/input)) was 0.265. Then “GATGATTGTTCTCCCAGCTGATGAATTTTGAGCATCGAGTAAACAAATTTTCCTAATCTTTCTGTTCAAGCGCCATCTAC”, with 0.906. Then “GATGATTGTTCTCCCAGCTGATGAATTTCGCCCGTCGAGTAAACAAATTTTCCTAATCTTTCTGTTCAAGCGCCATCTAC”, with 2.29; and “GATGATTGTTCTCCCAGCTGATGAATTCGAAAAGTCGAGTAAACAAATTTTCCTAATCTTTCTGTTCAAGCGCCATCTAC”, with 0.177; and “GATGATTGTTCTCCCAGCTGATGAATTTACCTTATCGAGTAAACAAATTTTCCTAATCTTTCTGTTCAAGCGCCATCTAC”, with 0.792. “GATGATTGTTCTCCCAGCTGATGAATTGCGGACCTCGAGTAAACAAATTTTCCTAATCTTTCTGTTCAAGCGCCATCTAC”: the binding signal (RPM ratio (pull-down/input)) came out at 0.612. For “GATGATTGTTCTCCCAGCTGATGAATTCTCAAGGTCGAGTAAACAAATTTTCCTAATCTTTCTGTTCAAGCGCCATCTAC”, the binding signal (RPM ratio (pull-down/input)) stood at 0.153. As for “GATGATTGTTCTCCCAGCTGATGAATTACCCAGCTCGAGTAAACAAATTTTCCTAATCTTTCTGTTCAAGCGCCATCTAC”, the binding signal (RPM ratio (pull-down/input)) stood at 0.235. In the case of “GATGATTGTTCTCCCAGCTGATGAATTTATCGCCTCGAGTAAACAAATTTTCCTAATCTTTCTGTTCAAGCGCCATCTAC”, the binding signal (RPM ratio (pull-down/input)) was determined as 1.07. Then “GATGATTGTTCTCCCAGCTGATGAATTAGCCACATCGAGTAAACAAATTTTCCTAATCTTTCTGTTCAAGCGCCATCTAC”, with 1.19; and “GATGATTGTTCTCCCAGCTGATGAATTAGTCACATCGAGTAAACAAATTTTCCTAATCTTTCTGTTCAAGCGCCATCTAC”, with 0.91.
